{"source": "the supplement of paper PMC8728848", "test_in_all_cases": "glycan array binding signal (z-score within array); higher = stronger binding", "conditions_in_all_cases": "glycan notation: IUPAC condensed, linker removed", "key": {"[1]": {"target": "Neu5Ac(a2-6)Gal(b1-3)GlcNAc(b1-3)[Gal(b1-4)GlcNAc(b1-6)]Gal(b1-4)Glc", "procedure,_shortened": "(§1)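 The Consortium for Functional Glycomics database supplied 3228 glycan arrays, of which those lacking an available protein sequence were dropped. The binding signal, a within-array Z-score, was averaged across arrays of the same protein sequence and across linkers. Negative scores can be read as non-binding.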"}, "[2]": {"target": "Neu5Ac(a2-6)Gal(b1-4)Glc", "procedure,_shortened": "as §1"}, "[3]": {"target": "Neu5Ac(a2-6)Gal(b1-4)GlcNAc", "procedure,_shortened": "as §1"}, "[4]": {"target": "Neu5Ac(a2-6)Gal(b1-4)GlcNAc(b1-2)Man", "procedure,_shortened": "as §1"}, "[5]": {"target": "Neu5Ac(a2-6)Gal(b1-4)GlcNAc(b1-2)Man(a1-3)Man(b1-4)GlcNAc(b1-4)GlcNAc", "procedure,_shortened": "as §1"}, "[6]": {"target": "Neu5Ac(a2-6)Gal(b1-4)GlcNAc(b1-2)Man(a1-3)[Gal(b1-4)GlcNAc(b1-2)Man(a1-6)]Man(b1-4)GlcNAc(b1-4)GlcNAc", "procedure,_shortened": "as §1"}, "[7]": {"target": "Neu5Ac(a2-6)Gal(b1-4)GlcNAc(b1-2)Man(a1-3)[GlcNAc(b1-2)Man(a1-6)]Man(b1-4)GlcNAc(b1-4)GlcNAc", "procedure,_shortened": "as §1"}, "[8]": {"target": "Neu5Ac(a2-6)Gal(b1-4)GlcNAc(b1-2)Man(a1-3)[GlcNAc(b1-4)][Neu5Ac(a2-6)Gal(b1-4)GlcNAc(b1-2)Man(a1-6)]Man(b1-4)GlcNAc(b1-4)GlcNAc", "procedure,_shortened": "as §1"}, "[9]": {"target": "Neu5Ac(a2-6)Gal(b1-4)GlcNAc(b1-2)Man(a1-3)[Man(a1-6)]Man(b1-4)GlcNAc(b1-4)GlcNAc", "procedure,_shortened": "as §1"}, "[10]": {"target": "Neu5Ac(a2-6)Gal(b1-4)GlcNAc(b1-2)Man(a1-3)[Neu5Ac(a2-3)Gal(b1-4)GlcNAc(b1-2)Man(a1-6)]Man(b1-4)GlcNAc(b1-4)GlcNAc", "procedure,_shortened": "as §1"}, "[11]": {"target": "Neu5Ac(a2-6)Gal(b1-4)GlcNAc(b1-2)Man(a1-3)[Neu5Ac(a2-6)Gal(b1-4)GlcNAc(b1-2)Man(a1-6)]Man(b1-4)GlcNAc(b1-4)GlcNAc", "procedure,_shortened": "as §1"}, "[12]": {"target": "Neu5Ac(a2-6)Gal(b1-4)GlcNAc(b1-2)Man(a1-3)[Neu5Ac(a2-6)Gal(b1-4)GlcNAc(b1-2)Man(a1-6)]Man(b1-4)GlcNAc(b1-4)[Fuc(a1-6)]GlcNAc", "procedure,_shortened": "as §1"}, "[13]": {"target": "Neu5Ac(a2-6)Gal(b1-4)GlcNAc(b1-2)Man(a1-6)Man(b1-4)GlcNAc(b1-4)GlcNAc", "procedure,_shortened": "as §1"}, "[14]": {"target": "Neu5Ac(a2-6)Gal(b1-4)GlcNAc(b1-2)Man(a1-6)[Gal(b1-4)GlcNAc(b1-2)Man(a1-3)]Man(b1-4)GlcNAc(b1-4)GlcNAc", "procedure,_shortened": "as §1"}, "[15]": {"target": "Neu5Ac(a2-6)Gal(b1-4)GlcNAc(b1-2)Man(a1-6)[GlcNAc(b1-2)Man(a1-3)]Man(b1-4)GlcNAc(b1-4)GlcNAc", "procedure,_shortened": "as §1"}, "[16]": {"target": "Neu5Ac(a2-6)Gal(b1-4)GlcNAc(b1-2)Man(a1-6)[Man(a1-3)]Man(b1-4)GlcNAc(b1-4)GlcNAc", "procedure,_shortened": "as §1"}, "[17]": {"target": "Neu5Ac(a2-6)Gal(b1-4)GlcNAc(b1-2)[Neu5Ac(a2-6)Gal(b1-4)GlcNAc(b1-4)]Man(a1-3)[GlcNAc(b1-4)][Neu5Ac(a2-6)Gal(b1-4)GlcNAc(b1-2)[Neu5Ac(a2-6)Gal(b1-4)GlcNAc(b1-6)]Man(a1-6)]Man(b1-4)GlcNAc(b1-4)GlcNAc", "procedure,_shortened": "as §1"}, "[18]": {"target": "Neu5Ac(a2-6)Gal(b1-4)GlcNAc(b1-2)[Neu5Ac(a2-6)Gal(b1-4)GlcNAc(b1-4)]Man(a1-3)[GlcNAc(b1-4)][Neu5Ac(a2-6)Gal(b1-4)GlcNAc(b1-4)Man(a1-6)]Man(b1-4)GlcNAc(b1-4)GlcNAc", "procedure,_shortened": "as §1"}, "[19]": {"target": "Neu5Ac(a2-6)Gal(b1-4)GlcNAc(b1-2)[Neu5Ac(a2-6)Gal(b1-4)GlcNAc(b1-6)]Man(a1-6)[Neu5Ac(a2-6)Gal(b1-4)GlcNAc(b1-2)Man(a1-3)][GlcNAc(b1-4)]Man(b1-4)GlcNAc(b1-4)GlcNAc", "procedure,_shortened": "as §1"}, "[20]": {"target": "Neu5Ac(a2-6)Gal(b1-4)GlcNAc(b1-3)Gal(b1-3)GlcNAc", "procedure,_shortened": "as §1"}, "[21]": {"target": "Neu5Ac(a2-6)Gal(b1-4)GlcNAc(b1-3)Gal(b1-4)GlcNAc", "procedure,_shortened": "as §1"}, "[22]": {"target": "Neu5Ac(a2-6)Gal(b1-4)GlcNAc(b1-3)Gal(b1-4)GlcNAc(b1-2)Man(a1-3)[Neu5Ac(a2-6)Gal(b1-4)GlcNAc(b1-3)Gal(b1-4)GlcNAc(b1-2)Man(a1-6)]GalNAc", "procedure,_shortened": "as §1"}, "[23]": {"target": "Neu5Ac(a2-6)Gal(b1-4)GlcNAc(b1-3)Gal(b1-4)GlcNAc(b1-3)Gal(b1-4)GlcNAc", "procedure,_shortened": "as §1"}, "[24]": {"target": "Neu5Ac(a2-6)Gal(b1-4)GlcNAc(b1-3)Gal(b1-4)GlcNAc(b1-3)Gal(b1-4)GlcNAc(b1-2)Man(a1-3)[Neu5Ac(a2-6)Gal(b1-4)GlcNAc(b1-3)Gal(b1-4)GlcNAc(b1-3)Gal(b1-4)GlcNAc(b1-2)Man(a1-6)]GalNAc", "procedure,_shortened": "as §1"}, "[25]": {"target": "Neu5Ac(a2-6)Gal(b1-4)GlcNAc(b1-3)Gal(b1-4)GlcNAc(b1-3)GalNAc", "procedure,_shortened": "as §1"}, "[26]": {"target": "Neu5Ac(a2-6)Gal(b1-4)GlcNAc(b1-3)Gal(b1-4)GlcNAc(b1-3)[Neu5Ac(a2-6)Gal(b1-4)GlcNAc(b1-3)Gal(b1-4)GlcNAc(b1-6)]GalNAc", "procedure,_shortened": "as §1"}, "[27]": {"target": "Neu5Ac(a2-6)Gal(b1-4)GlcNAc(b1-3)Gal(b1-4)GlcNAc(b1-6)[Gal(b1-3)]GalNAc", "procedure,_shortened": "as §1"}, "[28]": {"target": "Neu5Ac(a2-6)Gal(b1-4)GlcNAc(b1-3)Gal(b1-4)[Fuc(a1-3)]GlcNAc(b1-3)Gal(b1-4)[Fuc(a1-3)]GlcNAc", "procedure,_shortened": "as §1"}, "[29]": {"target": "Neu5Ac(a2-6)Gal(b1-4)GlcNAc(b1-3)GalNAc", "procedure,_shortened": "as §1"}, "[30]": {"target": "Neu5Ac(a2-6)Gal(b1-4)GlcNAc(b1-3)[Neu5Ac(a2-6)Gal(b1-4)GlcNAc(b1-6)]GalNAc", "procedure,_shortened": "as §1"}, "[31]": {"target": "Neu5Ac(a2-6)Gal(b1-4)GlcNAc(b1-6)GalNAc", "procedure,_shortened": "as §1"}, "[32]": {"target": "Neu5Ac(a2-6)Gal(b1-4)GlcNAc(b1-6)[Gal(b1-3)GlcNAc(b1-3)]Gal(b1-4)Glc", "procedure,_shortened": "as §1"}, "[33]": {"target": "Neu5Ac(a2-6)Gal(b1-4)GlcNAc(b1-6)[Gal(b1-3)]GalNAc", "procedure,_shortened": "as §1"}, "[34]": {"target": "Neu5Ac(a2-6)Gal(b1-4)GlcNAc6S", "procedure,_shortened": "as §1"}, "[35]": {"target": "Neu5Ac(a2-6)GalNAc", "procedure,_shortened": "as §1"}, "[36]": {"target": "Neu5Ac(a2-6)GalNAc(b1-4)GlcNAc", "procedure,_shortened": "as §1"}, "[37]": {"target": "Neu5Ac(a2-6)GalNAc(b1-4)GlcNAc6S", "procedure,_shortened": "as §1"}, "[38]": {"target": "Neu5Ac(a2-6)GlcNAc(b1-4)GlcNAc", "procedure,_shortened": "as §1"}}, "note": "Some of the results follow.", "data": [{"binder": "B1257 (Bifidobacterium sp) (protein) MKKSIRLVAAIAALAMTAGISACGSSTNGNQAKSDVTAQDVETALTDTSKNVELTVWAYSAKQMEPTVKAFEKKYPHIKINFVNTGAAGDHFTKFQNVVQAQKDIPDVVQMGANKFQQFAVSGALLNFANDSIEKAWSKLYTKTAWAQVHYAGGLYGAPQDATPLANYVRKDILDEHNLQVPESWEDIYNEGIKLHKEDSNKYMGILGSDISFFTNLYRSVGARLWKVNSVDDVELTMNSGKAKEFTEFLQKCLKDGVLEGGTVFTDEFNRSINDGRYATFINENWMGNTYKEQNPSLKGKMVVAAPPSWKGQPYQSSSVGSMMSVSAACPKEKQAAALAFINWLDSDKDAIQSWQDTNNGNFFMAASVYQDDENQRNKKETDGYYANDDVNAVYFDSMDKVNTDWEYLPFMSQVEVVFNDVIVPQMNENGDLVGAMAKAQQELKTYAKDNGFKVTTDAD", "values": [{"measurement": "glycan array binding signal (z-score)", "setting": "[1]", "result": -0.127}, {"measurement": "glycan array binding signal (z-score)", "setting": "[2]", "result": -0.093}, {"measurement": "glycan array binding signal (z-score)", "setting": "[3]", "result": -0.192}, {"measurement": "glycan array binding signal (z-score)", "setting": "[4]", "result": 0.048}, {"measurement": "glycan array binding signal (z-score)", "setting": "[5]", "result": -0.097}, {"measurement": "glycan array binding signal (z-score)", "setting": "[6]", "result": -0.031}, {"measurement": "glycan array binding signal (z-score)", "setting": "[7]", "result": -0.036}, {"measurement": "glycan array binding signal (z-score)", "setting": "[8]", "result": -0.123}, {"measurement": "glycan array binding signal (z-score)", "setting": "[9]", "result": -0.015}, {"measurement": "glycan array binding signal (z-score)", "setting": "[10]", "result": -0.163}, {"measurement": "glycan array binding signal (z-score)", "setting": "[11]", "result": -0.113}, {"measurement": "glycan array binding signal (z-score)", "setting": "[12]", "result": 0.024}, {"measurement": "glycan array binding signal (z-score)", "setting": "[13]", "result": -0.101}, {"measurement": "glycan array binding signal (z-score)", "setting": "[14]", "result": -0.122}, {"measurement": "glycan array binding signal (z-score)", "setting": "[15]", "result": -0.118}, {"measurement": "glycan array binding signal (z-score)", "setting": "[16]", "result": -0.099}, {"measurement": "glycan array binding signal (z-score)", "setting": "[17]", "result": -0.022}, {"measurement": "glycan array binding signal (z-score)", "setting": "[18]", "result": 0.094}, {"measurement": "glycan array binding signal (z-score)", "setting": "[19]", "result": -0.059}, {"measurement": "glycan array binding signal (z-score)", "setting": "[20]", "result": -0.111}, {"measurement": "glycan array binding signal (z-score)", "setting": "[21]", "result": -0.051}, {"measurement": "glycan array binding signal (z-score)", "setting": "[22]", "result": -0.059}, {"measurement": "glycan array binding signal (z-score)", "setting": "[23]", "result": -0.129}, {"measurement": "glycan array binding signal (z-score)", "setting": "[24]", "result": 0.344}, {"measurement": "glycan array binding signal (z-score)", "setting": "[25]", "result": -0.144}, {"measurement": "glycan array binding signal (z-score)", "setting": "[26]", "result": 0.073}, {"measurement": "glycan array binding signal (z-score)", "setting": "[27]", "result": -0.049}, {"measurement": "glycan array binding signal (z-score)", "setting": "[28]", "result": -0.047}, {"measurement": "glycan array binding signal (z-score)", "setting": "[29]", "result": 0.022}, {"measurement": "glycan array binding signal (z-score)", "setting": "[30]", "result": -0.02}, {"measurement": "glycan array binding signal (z-score)", "setting": "[31]", "result": 0.171}, {"measurement": "glycan array binding signal (z-score)", "setting": "[32]", "result": -0.136}, {"measurement": "glycan array binding signal (z-score)", "setting": "[33]", "result": -0.046}, {"measurement": "glycan array binding signal (z-score)", "setting": "[34]", "result": -0.126}, {"measurement": "glycan array binding signal (z-score)", "setting": "[35]", "result": -0.045}, {"measurement": "glycan array binding signal (z-score)", "setting": "[36]", "result": -0.178}, {"measurement": "glycan array binding signal (z-score)", "setting": "[37]", "result": 0.053}, {"measurement": "glycan array binding signal (z-score)", "setting": "[38]", "result": -0.027}]}]}
